The supplement of paper PMC4967469

Compound: CCCCCCCCCCCC1=C(O)C(=O)C=C(O)C1=O [Embelin]
Assay: Viability of human cancer cell lines after 72 h of drug (GDSC screen)
Settings: top dose 32 µM; top dose inferred
Protocol: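 Human cancer cell lines in 384-well plates, medium with 10% serum, drug for 72 h over a 256-fold dose range (nine 2-fold or five 4-fold steps up to the top dose). Adherent lines were fixed and stained with the nucleic acid dye Syto60, suspension lines read with resazurin; signal relative to control wells, capped at 0 and 100%. One two-parameter sigmoid per drug and line, fitted in a mixed model over all curves with the slope shared within a line.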

Row | Cell Line | AUC | IC50 [µM]
1 | SU-DHL-8 (B-cell lymphoma, suspension) | 0.604 | 3.77
2 | SU-DHL-16 (B-cell lymphoma, suspension) | 0.827 | 12.8
3 | SUIT-2 (pancreas, adherent) | 0.723 | 8.93
4 | SUP-B15 (lymphoblastic leukaemia, suspension) | 0.625 | 4.36
5 | SUP-HD1 (Hodgkin lymphoma, suspension) | 0.952 | > 32
6 | SUP-M2 (anaplastic large cell lymphoma, suspension) | 0.621 | 3.96
7 | SUP-T1 (T-cell lymphoblastic leukaemia, suspension) | 0.687 | 6.33
8 | SW13 (adrenal gland, adherent) | 0.786 | 14
9 | SW48 (large intestine, adherent) | 0.792 | 14.4
10 | SW156 (kidney, adherent) | 0.76 | 12.4
11 | SW620 (large intestine, adherent) | 0.877 | 25.8
12 | SW626 (ovary, adherent) | 0.736 | 10.9
13 | SW684 (fibrosarcoma, adherent) | 0.886 | > 32
14 | SW756 (cervix, adherent) | 0.781 | 16
15 | SW780 (bladder, adherent) | 0.767 | 12.9
16 | SW837 (large intestine, adherent) | 0.725 | 10.9
17 | SW872 (soft tissue, adherent) | 0.779 | 11.8
18 | SW900 (lung squamous cell carcinoma, adherent) | 0.813 | 20.9
19 | SW948 (large intestine, adherent) | 0.929 | > 32
20 | SW954 (urogenital system, adherent) | 0.78 | 13.3
21 | SW962 (urogenital system, adherent) | 0.702 | 8.59

Row | Cell Line | AUC | IC50 [µM]
22 | SW982 (soft tissue, adherent) | 0.705 | 7.71
23 | SW1088 (glioma, adherent) | 0.776 | 
24 | SW1271 (small cell lung carcinoma, adherent) | 0.716 | 9.09
25 | SW1417 (large intestine, adherent) | 0.905 | > 32
26 | SW1463 (large intestine, adherent) | 0.907 | > 32
27 | SW1573 (lung adenocarcinoma, adherent) | 0.879 | > 32
28 | SW1710 (bladder, adherent) | 0.777 | 13.3
29 | SW1783 (glioma, adherent) | 0.774 | 11.3
30 | SW1990 (pancreas, adherent) | 0.699 | 8.1
31 | Saos-2 (osteosarcoma, adherent) | 0.626 | 5.15
32 | SiHa (cervix, adherent) | 0.915 | > 32
33 | T47D (breast, adherent) | 0.938 | > 32
34 | T84 (large intestine, adherent) | 0.767 | 12.1
35 | T98G (glioma, adherent) | 0.814 | 15.8
36 | T-24 (bladder, adherent) | 0.94 | > 32
37 | T-T (oesophagus, adherent) | 0.702 | 7.4
38 | TALL-1 (T-cell lymphoblastic leukaemia, suspension) | 0.927 | > 32
39 | TC-71 (Ewing sarcoma, adherent) | 0.972 | > 32
40 | TCCSUP (bladder, adherent) | 0.743 | 11.1
41 | TE-1 (oesophagus, adherent) | 0.833 | 28.7
42 | TE-5 (oesophagus, adherent) | 0.735 | 10.6

Row | Cell Line | AUC | IC50 [µM]
43 | TE-6 (oesophagus, adherent) | 0.818 | 22.2
44 | TE-8 (oesophagus, adherent) | 0.782 | 14.4
45 | TE-9 (oesophagus, adherent) | 0.717 | 
46 | TE-10 (oesophagus, adherent) | 0.773 | 12.2
47 | TE-11 (oesophagus, adherent) | 0.876 | 26.9
48 | TE-12 (oesophagus, suspension) | 0.796 | 18.8
49 | TE-15 (oesophagus, suspension) | 0.738 | 10.6
50 | TE-441-T (rhabdomyosarcoma, adherent) | 0.906 | > 32
51 | TGBC1TKB (biliary tract, adherent) | 0.763 | 11.5
52 | TGBC11TKB (stomach, adherent) | 0.911 | > 32
53 | TGBC24TKB (biliary tract, adherent) | 0.865 | 25.3
54 | TGW (neuroblastoma, adherent) | 0.723 | 7.69
55 | TK10 (kidney, adherent) | 0.856 | > 32
56 | TK (B-cell lymphoma, suspension) | 0.694 | 6.63
57 | TMK-1 (stomach, adherent) | 0.838 | 23.5
58 | TOV-21G (ovary, adherent) | 0.929 | > 32
59 | TOV-112D (ovary, adherent) | 0.665 | 5.78
60 | TT2609-C02 (thyroid, adherent) | 0.726 | 9.23
61 | TT (thyroid, adherent) | 0.859 | > 32
62 | TUR (B-cell lymphoma, suspension) | 0.866 | 24.9
63 | TYK-nu (ovary, adherent) | 0.801 | 16.9

Row | Cell Line | AUC | IC50 [µM]
64 | U031 (kidney, adherent) | 0.833 | 21.7
65 | U251 (glioma, adherent) | 0.747 | 9.79
66 | U-2-OS (osteosarcoma, adherent) | 0.972 | > 32
67 | U-87-MG (glioma, adherent) | 0.877 | > 32
68 | U-118-MG (glioma, adherent) | 0.857 | > 32
69 | U-698-M (B-cell leukaemia, suspension) | 0.819 | 18.2
70 | UACC-62 (melanoma, adherent) | 0.538 | 2.54
71 | UACC-257 (melanoma, adherent) | 0.87 | > 32
72 | UACC-812 (breast, adherent) | 0.895 | > 32
73 | UACC-893 (breast, adherent) | 0.844 | > 32
74 | UM-UC-3 (bladder, adherent) | 0.768 | 11.3
75 | UMC-11 (lung carcinoid, adherent) | 0.772 | 11.1
76 | VA-ES-BJ (soft tissue, adherent) | 0.749 | 10.9
77 | VAL (B-cell lymphoma, suspension) | 0.851 | 24.6
78 | VCaP (prostate, adherent) | 0.827 | 20.6
79 | VM-CUB-1 (bladder, adherent) | 0.762 | 11.1
80 | VMRC-MELG (melanoma, adherent) | 0.878 | > 32
81 | VMRC-RCW (kidney, adherent) | 0.686 | 6.36
82 | VMRC-RCZ (kidney, adherent) | 0.738 | 10.9
83 | WIL2-NS (lymphoid neoplasm, suspension) | 0.685 | 5.87

By IC50 is meant the dose at which the fit gives 50% viability; where the fit passes the top or lowest dose, that dose stands as a limit. AUC, from the same fit, is the share of area under the viability curve across the 256-fold dose range: 1 means no effect, lower means more sensitive. The top dose, if marked as inferred, was calculated from the reported fits.
